This is one part of the list.
Tested on: T1, Caupolican (Caup) homeodomain DNA-binding domain
T1 sequence: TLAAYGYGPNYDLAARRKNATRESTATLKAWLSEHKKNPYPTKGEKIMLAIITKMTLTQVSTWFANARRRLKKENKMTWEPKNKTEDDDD
Assay: PBM E-score (8-mer, recovered from the published 9-mer minima) (E-score (dimensionless, -0.5 to 0.5)); Drosophila protein; higher = stronger relative binding preference, active = 0.31 or more
Protocol: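 Protein binding microarray (PBM): in vitro transcribed/translated Caupolican (Caup) homeodomain DNA-binding domain (residues 214-303) applied at 100 nM to a universal 8-mer PBM array (Agilent AMADID 015681). The 8-mer enrichment score (E-score, range -0.5 to 0.5) was computed, and each 9-mer score is the minimum E-score of its two constituent 8-mers. The E-score is the same for a 9-mer and its reverse complement; 0.31 is the stated binding threshold.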

Sequence | PBM E-score
TACGACAA | inactive: 0.28
CCCCGTGC | inactive: -0.221
CCTTTATA | inactive: 0.0249
ACATAACG | inactive: 0.301
ATTGAAAT | inactive: 0.0885
AGATGGTG | inactive: -0.0838
TTTACAAA | inactive: 0.245
ATTGCAGG | inactive: -0.00827
AACAAGCA | inactive: 0.308
CGGTTGGA | inactive: -0.155
CCGCTTCG | inactive: -0.192
AGTATCAA | inactive: 0.148
TATGTAAA | active: 0.327
ATCATCAG | inactive: 0.0473
CCGGCGCG | inactive: -0.245
ACGGACGC | inactive: -0.0557
GTTGGCCA | inactive: -0.131
GAACGAGA | inactive: 0.0986
ACCGCGCA | ≥ -0.0591
CAACGCGA | inactive: 0.0302
ATTCGGTC | inactive: -0.0344
GAGACAGA | inactive: 0.0588
GGTGGGCA | inactive: -0.0603
CCACTACG | inactive: -0.114
AAACGTCA | inactive: 0.0239
CTGTTATC | inactive: 0.103

Sequence | PBM E-score
ACGCTGGA | inactive: -0.139
CAGGGAGG | inactive: -0.281
CCACGACA | inactive: 0.1
TAGTTGCA | inactive: 0.111
GATATTTA | inactive: 0.099
CGTCAACC | inactive: 0.0167
ACCGTAGC | inactive: -0.0502
GTAATTAC | inactive: 0.274
GTGTCCAA | inactive: 0.253
GCGGGTGA | inactive: -0.223
GTTTTAAA | inactive: 0.0852
CAGAAGCG | inactive: -0.1
CGTGCGGC | inactive: -0.189
GGAGAATA | ≥ 0.117
ACCTCATG | inactive: 0.0552
GCCGCAGC | inactive: -0.204
CTTTGAGC | inactive: -0.207
CTCTTAAG | inactive: -0.0965
AGTCGCCA | inactive: -0.173
ATCCCCGG | inactive: -0.117
CGAAGACC | inactive: -0.0172
CATCGTCG | inactive: -0.0502
ACTGCACA | inactive: 0.0535
ATGCCCAT | ≥ -0.0245
ATAGGTCG | inactive: -0.0592
ACACAAGG | inactive: 0.158

Sequence | PBM E-score
GGGAAGAA | inactive: -0.072
CATTATTC | inactive: 0.127
TCCTTCCA | ≥ -0.048
ATCCTGCG | inactive: -0.122
CGAATCGC | inactive: -0.0913
AGGGTGAT | ≥ 0.0141
CTCACCGC | inactive: -0.134
GCACCCGC | inactive: -0.149
AGTTAATA | inactive: 0.178
AGACAGCT | inactive: -0.0192
AGACCTCT | inactive: -0.19
ACGCCTTC | inactive: -0.0929
ATAGGTAA | inactive: 0.0794
CACGAATG | inactive: 0.14
CTTGAGAC | inactive: -0.14
CATGACCG | inactive: 0.0138
CGCAAAAC | inactive: 0.00757
ACTGCACT | inactive: -0.0303
ATGAATGC | inactive: 0.0723
TCGCTACA | inactive: 0.21
ACCGGCGT | ≥ -0.0479
ATGACAAT | inactive: 0.274
CTCATAAC | inactive: -0.00553
CAGGCTGA | inactive: -0.114
GAATGCTC | inactive: -0.112
CGCCTCTC | inactive: -0.271

Sequence | PBM E-score
TAAAGACA | inactive: 0.174
CCACCAAC | inactive: -0.0531
TGCTCCAA | inactive: 0.02
ATCACAGG | inactive: 0.0483
ACATGAAC | active: 0.372
CAAGCGCA | inactive: 0.0953
CTTCTGAC | inactive: 0.0331
ACGAGCTG | inactive: 0.0659
CCATAGGC | inactive: -0.179
ACTCAGCC | inactive: -0.171
CCGTGCTA | inactive: 0.00141
ATACGTAG | inactive: 0.152
GTTCTGCA | inactive: 0.0113
AAATTTAA | inactive: 0.0777
GAGCATAA | inactive: -0.00375
AATTTCTG | inactive: 0.00278
ATGCTACG | inactive: 0.124
AAACGTAC | inactive: 0.162
CCCAGTCG | inactive: -0.219
TCTCGTAA | inactive: 0.145
GTATTCAC | inactive: 0.121
ACATACGC | inactive: 0.139
ATGATACA | inactive: 0.295
AAATACTT | inactive: 0.1
GGCGTAAC | inactive: -0.0448
CGAGGTAA | inactive: -0.0814

Sequence | PBM E-score
CTTAGGTA | inactive: 0.0422
AACGACTA | inactive: 0.153
AGAGACCA | inactive: -0.0887
AACCCGCT | inactive: -0.132
ACTGAATA | ≥ 0.129
ATAAACAG | inactive: 0.147
CGGTTATC | inactive: -0.0149
GGTAGATA | inactive: 0.0131
TAACTAGA | ≥ 0.158
AATAATGG | inactive: -0.0161
CAATCACG | inactive: 0.101
TGTAAGAA | inactive: 0.246
AAACAGTT | inactive: 0.0695
GATTGGCC | inactive: -0.144
GCTACAGC | inactive: 0.00194
ACTGCCGA | ≥ -0.0979
CACACAAC | inactive: 0.14
ATGCTGCA | ≥ 0.0786
ACTTTTCT | inactive: 0.0217
GCCCCCCA | inactive: -0.383
AGTTGCAA | inactive: 0.115
AAGACTCA | inactive: 0.0289
AGTAGCAT | inactive: 0.0961
AAACTTGA | inactive: -0.0364
ACGCACTC | inactive: -0.0124
AACGTGTG | inactive: 0.111

Sequence | PBM E-score
ATGCTAAG | inactive: 0.00253
AAGAGCCT | ≥ -0.0548
ATATTGTC | inactive: 0.219
CAGACACG | inactive: 0.164
GCCCAACC | inactive: -0.0162
CTCCAATC | inactive: -0.117
CTCGGAGA | inactive: -0.209
ATATCTAA | inactive: 0.18
AAATCGGG | inactive: -0.11
TCTTAAGA | inactive: -0.032
GATACAGC | inactive: 0.0929
CTGATTGC | inactive: -0.00533
ACGCTCAC | inactive: -0.0193
GTCAGATA | inactive: 0.0913
CTAATCTA | inactive: 0.113
CTGCTGAC | inactive: -0.0459
GAACACGC | inactive: 0.254
ATCATAGC | inactive: 0.0632
AGAACAGC | inactive: 0.0474
GAACTACC | inactive: 0.0628
AAACCATG | inactive: 0.146
TGACGTCA | ≥ 0.0555
GTCCTAGA | inactive: -0.0212
ACGCGGCG | inactive: -0.153
GACGATCC | inactive: -0.0421
ACCTTTCA | inactive: -0.0249

Sequence | PBM E-score
AAGTGCCC | inactive: -0.126
CTATGGGA | inactive: -0.0218
AACTTTTG | inactive: 0.123
GGCTATAC | inactive: -0.0714
CTAGCCAG | inactive: -0.164
CAGCATTA | inactive: 0.126
AAGCACAA | ≥ 0.124
AATCTCGC | inactive: -0.0304
CTACAAAC | inactive: 0.114
CCTCAACG | inactive: -0.112
GACCCCCA | inactive: -0.371
ATCATTCC | inactive: 0.0629
CTTCGTAC | inactive: -0.0255
ACCTAACT | inactive: 0.118
AGGTGAAC | inactive: 0.0123
GAATCCGA | inactive: 0.0448
GATGTGGA | inactive: 0.0997
AGACCAAA | inactive: -0.101
CTATACTA | ≥ 0.219
CAAACATA | inactive: 0.292
ACGTGATC | inactive: 0.129
ATGTTCGG | inactive: 0.244
GCAATTAA | inactive: 0.0581
AAGGAGAG | inactive: -0.153
AAACGTAG | inactive: 0.0552
AAGGACTC | inactive: -0.00964

Sequence | PBM E-score
ATTAGCGC | inactive: 0.0167
ACCCGCCT | inactive: -0.135
AACAGTTG | inactive: 0.0731
TCGAGCCA | inactive: -0.096
ACCTTTTG | inactive: -0.0922
AGTGAGGG | inactive: -0.172
CGGAAACG | inactive: -0.0861
CTCCAGTC | inactive: -0.121
GTACGCGA | inactive: 0.0403
GCTATCAC | inactive: -0.0224
TCTCAGCA | inactive: -0.0623
ATATCCGG | inactive: 0.0333
CCTGGTTA | inactive: 0.0806
ACAAATTG | inactive: 0.247
CGACCGAC | inactive: -0.023
TGGGCGAA | ≥ -0.0696
GAACCGGA | inactive: -0.0422
TATTCGGA | inactive: 0.0441
GAACGCAC | inactive: -0.0368
ACGTCCTA | inactive: -0.0249
CAAAGACA | inactive: 0.145
AGTAATCA | inactive: 0.168
AGGATGCA | inactive: -0.0185
TACGCACA | inactive: 0.0359
CAGTCGGG | inactive: -0.145
CCACTCGC | inactive: -0.129

Sequence | PBM E-score
ACAAATAA | inactive: 0.241
CGCTGGGC | inactive: -0.236
AGGTCCGC | inactive: -0.229
CGATCGCA | inactive: 0.0422
ATGCAGGG | inactive: -0.141
GGACCTGA | inactive: -0.0838
AAAGCTAA | inactive: 0.0223
CTCTGAAC | inactive: -0.0015
CGGATGAC | inactive: -0.0842
CGCATTGA | inactive: -0.0262
ATTCAGGG | inactive: -0.0511
CGCTTGAC | inactive: -0.0318
GACCCTAA | inactive: -0.0674
GAGTTTAA | inactive: -0.0073
CGTATTAC | inactive: 0.0808
CCTGCTGA | ≥ 0.0216
CCCCTCTA | inactive: -0.134
AAGGTCAC | inactive: -0.0469
TCAGAAAA | inactive: 0.0467
